Measurements as given in the supplement of paper PMC9446081.
Screen size: about 39,000 compounds; about 220 (0.56%) showed activity. The list shows a part of the results.

Test system: Escherichia coli K-12 BW25113
Assay: relative growth (OD600 normalised to plate interquartile mean) (fraction); higher = less growth inhibition, active = 0.2 or less
Details: 50 µM; LB; incubation time: overnight (16-24 h)
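Further: static incubation at 37 °C against the wild-type strain, values averaged over two biological replicates.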

Compound	relative growth
C[C@H](CO)N1C[C@H](C)[C@@H](CN(C)Cc2ccc(C(=O)Nc3ccccc3N)cc2)Oc2ccc(NC(=O)Nc3cccc4ccccc34)cc2C1=O	inactive: 1.05
C[C@H]1CN([C@@H](C)CO)C(=O)Cc2cc(NC(=O)Nc3cccc4ccccc34)ccc2O[C@H]1CN(C)C(=O)Nc1ccccc1	inactive: 0.977
C[C@@H]1CCCCO[C@@H](CN(C)Cc2ccc3c(c2)OCO3)[C@@H](C)CN([C@@H](C)CO)C(=O)c2cc(NS(=O)(=O)c3ccccc3)ccc2O1	inactive: 1.02
CC(N)CCCC(C)(C)O.Cl (stereo not given)	inactive: 1.04
C[C@H]1CN([C@@H](C)CO)C(=O)c2cc(NS(=O)(=O)c3cn(C)cn3)ccc2O[C@@H]1CN(C)S(=O)(=O)c1ccccc1	inactive: 0.995
CC(C)C#Cc1cnc2c(c1)C(=O)N([C@@H](C)CO)C[C@@H](C)[C@@H](CN(C)S(=O)(=O)c1cn(C)cn1)O2	inactive: 1
O=C1C[C@]2(c3ccc([N+](=O)[O-])cc3)C(=O)N(Cc3ccccc3)c3cc(CO)ccc3[C@H]2N1CC12CC3CC(CC(C3)C1)C2	inactive: 0.983
C[C@@H]1CN([C@@H](C)CO)C(=O)c2cccc(NC(=O)c3ccc(-c4nccs4)cc3)c2O[C@H]1CN(C)Cc1ccc(C(=O)Nc2ccccc2N)cc1	inactive: 1.01
COc1ccc(CN(C)C[C@H]2OCCCC[C@@H](C)Oc3ccc(NC(=O)Cc4ccccc4)cc3C(=O)N([C@@H](C)CO)C[C@H]2C)cc1	inactive: 0.996
Cc1ccc(S(=O)(=O)N(C)C[C@H]2Oc3ccc(NS(=O)(=O)c4cn(C)cn4)cc3C(=O)N([C@@H](C)CO)C[C@H]2C)cc1	inactive: 1.02
COCC#Cc1ccc2c(c1)O[C@H](CN(C)S(C)(=O)=O)[C@@H](C)CN([C@@H](C)CO)S2(=O)=O	inactive: 0.987
C[C@@H]1CN([C@@H](C)CO)C(=O)c2cc(NC(=O)Cc3cn(C)c4ccccc34)ccc2O[C@H]1CN(C)Cc1ccc(Oc2ccccc2)cc1	inactive: 1.01
C[C@@H]1CCCCO[C@H](CN(C)C(=O)Nc2ccc(F)cc2)[C@@H](C)CN([C@@H](C)CO)C(=O)c2cc(NC(=O)Nc3ccc(C(F)(F)F)cc3)ccc2O1	inactive: 1.01
Cc1ccc(S(=O)(=O)N(C)C[C@H]2Oc3ccc(NC(=O)CCN4CCOCC4)cc3C(=O)N([C@@H](C)CO)C[C@H]2C)cc1	inactive: 1.03
COc1ccc(CN(C)C[C@@H]2OCCCC[C@H](C)Oc3ccc(NC(=O)CCC(F)(F)F)cc3C(=O)N([C@H](C)CO)C[C@@H]2C)cc1	inactive: 0.958
C[C@@H]1CN([C@@H](C)CO)C(=O)c2cc(NC(=O)c3ccccc3)ccc2O[C@@H](C)CCCCO[C@H]1CN(C)Cc1ccc2c(c1)OCO2	inactive: 1.03
O=C(C[C@H]1CC[C@@H]2[C@H](COC[C@H](O)CN2C(=O)c2ccccc2F)O1)N1CCN(c2ccccc2)CC1	inactive: 0.978
O=C(O)C1=CCCNC1	inactive: 0.966
C[C@H]1CCCCO[C@H](CN(C)C(=O)CCC(F)(F)F)[C@@H](C)CN([C@@H](C)CO)C(=O)c2cc(NS(=O)(=O)c3ccc(F)cc3)ccc2O1	inactive: 1
C[C@@H]1CN([C@@H](C)CO)C(=O)Cc2cc(NC(=O)Cn3cnnn3)ccc2O[C@@H]1CN(C)C(=O)Nc1ccc(F)cc1	inactive: 1.01

Compound	relative growth
CCCCCCc1ccc(O)cc1O.Nc1c2ccccc2nc2ccccc12	inactive: 0.591
Cc1ccc(S(=O)(=O)Nc2ccc3c(c2)C(=O)N([C@@H](C)CO)C[C@H](C)[C@H](CN(C)S(=O)(=O)c2ccc(F)cc2)OCCCC[C@H](C)O3)cc1	inactive: 1
COc1ccc(S(=O)(=O)N(C)C[C@@H]2OCCCC[C@H](C)Oc3ccc(NC(=O)Nc4ccc(F)cc4)cc3C(=O)N([C@H](C)CO)C[C@H]2C)cc1	inactive: 1.04
C[C@@H]1CN([C@H](C)CO)C(=O)c2cc(NC(=O)Cc3ccccc3)ccc2O[C@H]1CN(C)Cc1ccc(-c2ccccc2)cc1	inactive: 1.02
CC(=O)c1c(C)nn(CC(=O)O)c1C	inactive: 1
C[C@H](CO)N1C[C@H](C)[C@H](CN(C)C(=O)c2ccccc2)OCCCC[C@H](C)Oc2ccc(NC(=O)c3ccccc3)cc2C1=O	inactive: 0.996
C[C@@H]1CN([C@H](C)CO)C(=O)c2cc(NS(=O)(=O)c3ccc(F)cc3)ccc2O[C@H]1CN(C)C(=O)Nc1ccc(C(F)(F)F)cc1	inactive: 1.01
CC1(C)S[C@@H]2[C@H](NC(=O)[C@H](NC(=O)N3CCNC3=O)c3ccccc3)C(=O)N2[C@H]1C(=O)O	active: 0.0984
CCCCCCCCCc1ccc(OCCOCCOCCOCCOCCOCCOCCOCCOCCO)cc1	inactive: 0.996
C[C@@H]1CN([C@H](C)CO)C(=O)Cc2cc(NC(=O)Nc3ccc(C(F)(F)F)cc3)ccc2O[C@@H]1CN(C)Cc1ccc(Cl)c(Cl)c1	inactive: 1.02
CC(C)c1ccc2oc3nc(N)c(C(=O)O)cc3c(=O)c2c1	inactive: 0.903
C[C@@H]1CCCCO[C@H](CN(C)Cc2ccc(Cl)c(Cl)c2)[C@@H](C)CN([C@@H](C)CO)C(=O)c2cc(NS(=O)(=O)c3ccc(F)cc3)ccc2O1	inactive: 0.97
C[C@@H]1CN([C@H](C)CO)C(=O)c2cc(NS(=O)(=O)c3ccc(Cl)cc3)ccc2O[C@@H](C)CCCCO[C@H]1CN(C)Cc1ccc(Cl)c(Cl)c1	inactive: 0.983
CC(C)NC(=O)Nc1ccc2c(c1)CC(=O)N([C@@H](C)CO)C[C@@H](C)[C@@H](CN(C)Cc1ccc(Oc3ccccc3)cc1)O2	inactive: 1.04
C[C@H](CO)N1C[C@H](C)[C@@H](CN(C)S(C)(=O)=O)Oc2c(NC(=O)Nc3ccc(C(F)(F)F)cc3)cccc2C1=O	inactive: 1
Cc1ccc(S(=O)(=O)Nc2ccc3c(c2)C(=O)N([C@@H](C)CO)C[C@H](C)[C@@H](CN(C)C(=O)NC2CCCCC2)OCCCC[C@@H](C)O3)cc1	inactive: 1.01
Nn1c(C(F)(F)F)n[nH]c1=S	inactive: 1.01
O=C(NC1(C(F)(F)F)Oc2cc(Cl)c(Cl)cc2O1)C1=C(N2CCOCC2)/C(=C/c2ccccc2)CC1	inactive: 0.595
Cc1noc(C)c1S(=O)(=O)N(C)C[C@H]1Oc2ccc(NS(=O)(=O)c3cn(C)cn3)cc2CC(=O)N([C@H](C)CO)C[C@@H]1C	inactive: 1.01
C[C@H]1CN([C@@H](C)CO)C(=O)Cc2cc(NC(=O)Nc3cccc4c3CCCC4)ccc2O[C@H]1CN(C)S(=O)(=O)c1ccc(Cl)cc1	inactive: 1.01

Compound	relative growth
C[C@H]1CN([C@@H](C)CO)C(=O)CCCn2nncc2CO[C@@H]1CN(C)S(=O)(=O)c1ccc(Oc2ccccc2)cc1	inactive: 0.997
Cc1noc(C)c1NC(=O)Nc1ccc2c(c1)C(=O)N([C@@H](C)CO)C[C@@H](C)[C@H](CN(C)S(=O)(=O)c1cccs1)OCCCC[C@H](C)O2	inactive: 1
COc1ccc(NC(=O)N(C)C[C@@H]2OCCCC[C@H](C)Oc3ccc(NS(=O)(=O)c4c(C)noc4C)cc3C(=O)N([C@@H](C)CO)C[C@@H]2C)cc1	inactive: 0.934
C[C@H](CO)N1C[C@H](C)[C@H](CN(C)Cc2ccc(-c3ccccc3)cc2)Oc2ccc(NC(=O)Cc3ccccc3)cc2CC1=O	inactive: 1
COc1ccc(CN(C)C[C@H]2Oc3ccc(NS(=O)(=O)c4c(C)noc4C)cc3C(=O)N([C@@H](C)CO)C[C@@H]2C)cc1	inactive: 1.01
C[C@H]1CN([C@@H](C)CO)C(=O)Cc2cc(NC(=O)c3ccncc3)ccc2O[C@H]1CN(C)C(=O)NC1CCCCC1	inactive: 1.01
C[C@H](CO)N1C[C@H](C)[C@@H](CN(C)Cc2ccc(Oc3ccccc3)cc2)Oc2ccc(NC(=O)Cn3cnnn3)cc2C1=O	inactive: 0.998
C[C@H]1CN([C@@H](C)CO)C(=O)c2cccc(NC(=O)NC3CCCCC3)c2O[C@@H]1CN(C)C(=O)Nc1ccc(C(F)(F)F)cc1	inactive: 0.766
CC(=O)OC1CCC2(C)C3=C(CCC2C1(C)C)C1(C)CCC(C(C)CCC=C(C)C)C1(C)CC3 (stereo not given)	inactive: 0.975
O=C(N[C@@H]1CC[C@@H](CC(=O)N2CCOCC2)O[C@H]1CO)c1ccccn1	inactive: 1.01
COC(=O)Nc1nc2cc(C(=O)c3ccccc3)ccc2[nH]1	inactive: 1.05
Cc1cc(-c2ccccc2)oc2cc3ccccc3c1-2	inactive: 1.02
C[C@H]1CN([C@@H](C)CO)C(=O)c2cc(C#CCc3ccccc3)cnc2O[C@@H]1CN(C)C(=O)Cc1cccnc1	inactive: 1.01
O=C(O)c1cccc(O)c1O	inactive: 1.01
C[C@H]1CN([C@@H](C)CO)C(=O)c2cc(NC(=O)Cc3ccccc3)ccc2O[C@@H]1CN(C)Cc1ccc(C(F)(F)F)cc1	inactive: 1.03
NCC[C@@H]1CC[C@@H](NC(=O)c2ccccc2F)[C@@H](CO)O1	inactive: 1.05
CC(=O)c1cccc(C(F)(F)F)c1	inactive: 0.96
C[C@H]1CN([C@@H](C)CO)C(=O)Cc2cc(NC(=O)Cn3cnnn3)ccc2O[C@@H]1CN(C)S(=O)(=O)c1ccccc1	inactive: 0.997
C[C@@H]1CN([C@H](C)CO)S(=O)(=O)c2ccc(C#Cc3ccccc3F)cc2O[C@H]1CN(C)C(=O)Cc1ccncc1	inactive: 0.987
COc1ccc(NC(=O)Nc2ccc3c(c2)C(=O)N([C@H](C)CO)C[C@H](C)[C@@H](CN(C)C(=O)Nc2ccc(OC)cc2)OCCCC[C@@H](C)O3)cc1	inactive: 0.982
